# Out of some 150,000 compounds screened, about 540 (0.36%) showed an effect of 50% or more. Some of the results follow.
# Tested on: Plasmodium falciparum
# Experiment: Primary screen in NF54 nanoGlo assay, in single point, at 2uM, 72h; a lower Z score goes with more inhibition
# Format: functional, Erythrocyte
# Conditions: timepoint 72 hour
SMILES,% Inhibition,Z score
CCc1ccc(NC(=O)N2C[C@H](O)[C@@H](F)C2)cc1,4%,-0.39
CCOC(=O)CNC(=O)N1CCN(S(=O)(=O)c2ccc3c(ccn3C)c2)CC1,2%,-0.3
CC(=O)N1CC2=Nc3cccc4c3c(cn4CCC(C)C)[C@H](c3c(F)cccc3Cl)C2=C1O,0%,-0.03
CCCn1nnc(NC(=O)c2cccs2)n1,7%,-0.87
Cc1nc(-c2ccccc2NC(=O)NCCOc2ccccc2)cs1,-7%,1.33
Cc1cc(-c2noc(CCC(=O)N3CCC(c4nncn4C)CC3)n2)ccc1F,-9%,1.51
Cc1ccc([C@H](CNc2ccc3cc[nH]c3n2)N(C)C)o1,-10%,1.47
Cc1cnc(NC[C@H]2CC[C@H](CO)CC2)nc1N(C)C,-7%,1.08
CCc1nnsc1-c1nc(C2CC2)n[nH]1,-10%,1.96
Clc1cccc(-n2cc(-c3noc(-c4cccs4)n3)nn2)c1,-16%,3.05
O=C1NC2(CCN(S(=O)(=O)c3ccc(F)c(F)c3)CC2)N=C1c1cccs1,-10%,0.96
CCCCn1ccnc1C1CCN(C(=O)c2ccccc2-c2nnn[nH]2)CC1,-4%,0.46
C[C@H](Nc1nc2nonc2nc1N)c1ccccc1,-8%,1.04
CCNC(=O)Cn1ccc(NC(=O)[C@@H]2CCCc3ccccc32)n1,-12%,1.63
CCCCNC(=O)CCS(=O)(=O)c1ccc(Cl)cc1,1%,-0.14
Cc1nn(C)c2nc(N3CCS(=O)(=O)CC3)sc12,-6%,1.22
NC(=O)[C@H]1CCN(C(=O)c2ccc3noc(-c4ccccc4)c3c2)C1,9%,-1.18
C=CCNC(=O)c1cccnc1Oc1cccc(NS(=O)(=O)c2ccccc2)c1,-4%,0.75
CC1CN(C(=O)C2CCCN(C(=O)c3ccc(Cl)cc3)C2)CC(C)O1 (stereo not given),-11%,1.4
Cc1cnc(-n2cnnc2)c(-c2cn[nH]c2)c1,2%,-0.27
Cc1nnc(CN2CCC[C@H](Cn3ccnc3C)C2)s1,-16%,1.99
CC1=NO[C@](C)(C(=O)NCC2(COc3ccccc3)CC2)C1,-11%,1.39
CC(=O)Nc1nnc(-c2cc(Cl)sc2Cl)o1,-4%,0.72
O=C(CS(=O)(=O)c1ccc(Cl)cc1)N1CCOCC1,-6%,0.81
Cc1ccnc(NC(=O)c2cccnc2O)c1,-12%,2.3
O=C(Cc1ccccc1)N1CCN(c2cc(N3CCCC3)ncn2)CC1,-8%,0.94
CO[C@@H](CS(=O)(=O)Nc1c(O)cc(Br)cc1Cl)C1CC1,-9%,1.25
O=C(Cn1cnnn1)Nc1ccc(-c2ccc(Cl)s2)cn1,-15%,1.36

SMILES,% Inhibition,Z score
O=C(c1nc2ccccn2c1F)N1CCC[C@H]1c1nc(-c2ccccc2)no1,5%,-0.98
CN(Cc1ccccc1)Cc1cn([C@H]2CO[C@H]3[C@@H]2OC[C@@H]3NC(=O)c2ccc(C(F)(F)F)cc2)nn1,13%,-1.46
Cc1cn2cc(-c3ccccc3)c(C#N)c2nc1C,-14%,2.08
Cc1cnc2nc(C(=O)N3CCOC[C@@]3(C)C3CC3)nn2c1,0%,0.08
CC[C@@H]1C(=O)N(c2nc(C)cc(C)n2)N=C1C,-7%,0.96
CCn1c(-c2cc(NC(=O)c3cccs3)[nH]n2)c(C)c2ccccc21,8%,-1.07
Cc1cc(NCc2nncn2C)ccc1C(=O)OC(C)(C)C,-8%,0.86
CCOC(=O)C(C)CNC(=O)C1CCN(c2ccccc2Cl)C1 (stereo not given),0%,0.08
CO[C@H]1CCN(c2ccc(NC(=O)C3CCN(S(C)(=O)=O)CC3)cc2)C1,-23%,2.96
CN(Cc1ccccc1Cn1cccn1)[C@@H]1CCCC[C@@H]1O,-1%,0.12
N#Cc1ccc([C@@H](O)CN2CCCOCC2)cc1,-4%,0.71
COc1ccc(-c2noc(-c3c[nH]c4ccc(F)cc4c3=O)n2)cc1OC,-6%,0.91
CCCc1nc(C(=O)N(Cc2ccccn2)C2CCCCC2)cs1,-15%,1.76
CC(=O)N1CCCN(S(=O)(=O)N(C)C2CCCCC2)CC1,-3%,0.51
CCN(Cc1ccc(OC)c(F)c1)S(=O)(=O)c1ccc(S(=O)(=O)N2CCCC2)cc1,-1%,0.08
Cc1n[nH]c([C@@H]2CN(Cc3nc(C)c(C)o3)CCO2)n1,5%,-0.51
CN(C)C(N)=NCc1ccc(C2CC2)cc1,7%,-1.15
CCCc1nc(N2C[C@@H]3[C@H](C2)[C@H]2CC[C@@H]3O2)no1,-7%,1.04
Cc1ccoc1C(=O)N1CCCNC(=O)C1,-17%,1.87
Cc1cccc2c(=O)n(CC(=O)Nc3ccccc3Oc3ncc(Cl)cc3Cl)cnc12,16%,-3.09
C[C@@H](Cc1ccsc1)NS(=O)(=O)CC1CCOCC1,-9%,1.38
Cc1cccc(Nc2nc(N)nc(N)c2S(=O)(=O)c2ccc(Cl)cc2)c1,12%,-1.38
COc1ccccc1NC(=O)c1oc2ccccc2c1NC(=O)c1ccc2ccccc2c1,-1%,0.17
O=C(Nc1c(C(=O)Nc2ccc3c(c2)OCCO3)oc2ccccc12)c1cc2ccccc2o1,-3%,0.51
O=C(NC[C@H]1CCCN1c1ncccn1)C1CCCC1,0%,0.02
O=C(c1c[nH]c(=O)c(C(F)(F)F)c1)N1CCC[C@H](OCC2CC2)C1,11%,-1.06
C#Cc1cccc(NC(=O)N2CC(S(=O)(=O)N3CCN(C(=O)OC(C)(C)C)CC3)C2)c1,-8%,1.11

# — ChEMBL document CHEMBL4888484, “Replenishing the malaria drug discovery pipeline: Screening and hit evaluation of the MMV Hit Generation Library 1 (HGL1) against asexual blood stage Plasmodium falciparum ,using a nano luciferase reporter read-out” (2022)
